Some of the results follow. No stated cut-off is given here; in the data, active = 3.2 or more and inactive = the rest. Most of these values are background signal.
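Further: displayed peptides selected on beads carrying the immobilized SH2 domain, with library peptides lacking any tyrosine serving as negative controls.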

One assay addresses SHP2 C-SH2 domain E139D. Nature of the assay: enrichment score (SH2-bound / input frequency) (ratio); bacterial display of known human phosphotyrosine sites (pTyr-Var adds point mutants) read by sequencing; higher = stronger binding; tyrosines were phosphorylated by kinases first. The following applies: peptide library: pTyr-Var.
Consider FAKTQYPDVYA [CRX_Y63], for which the enrichment score was inactive: 0.772.
Regarding LENSTYQFIRV [CRB1_Y760_YF], the enrichment score is inactive: 1.31.
As to LDMSQYFRLFN [CPT2_Y217], the enrichment score was inactive: 1.09.
For PEEKVYLSRGD [CRACR2A_Y141_H136P], the enrichment score was inactive: 0.56.
On to LFQAKYQIRFR [CRLF1_Y272_YF], for which the enrichment score was inactive: 1.3.
Turning to TLNHQYDFTFH [CSNK1A1_Y292_D297H_YF], the enrichment score was inactive: 0.97.
As for LRTAVYHEILI [CREBBP_Y1450], the enrichment score is inactive: 1.34.
As for TWSRSYRSDRL [CRYBB1_Y131_S129R], the enrichment score is inactive: 0.334.
Turning to CPASVYTKRCS [CPT2_Y508_R503C], the enrichment score was inactive: 0.579.
Still for that read-out and setting: as for FQVRRYDCDCD [CRYGS_Y21_G18V], the figure is inactive: 0.696.
On the same count and under the same terms, under EPSLVYMVTKI [CPS1_Y768_D767V] stands inactive: 0.674.
For DEWFLYKMRDI [CPS1_Y879_K875E], the enrichment score is inactive: 0.949.
As for LGMSQYFRLFN [CPT2_Y217_D213G], the enrichment score was inactive: 1.64.
Take TISPFYRQSLF [CRYAA_Y48_YF]: the enrichment score is inactive: 1.04.
Turning to NCLRQYVAGRF [CRB1_Y711_E710Q], the enrichment score was inactive: 0.389.
As for TLNHQYDYTFD [CSNK1A1_Y292], the enrichment score was inactive: 0.829.
Take RRERDYTNLPS [CSF1R_Y923]: the enrichment score is inactive: 0.262.
The same measure, in the same setting: as for TISPFYCQSLF [CRYAA_Y48_R49C_YF], the figure is inactive: 0.89.

The target in another assay is SHP2 C-SH2 domain wild-type. The description is as above. The following applies: peptide library: pTyr-Var.
On to FAKTQYPDVYA [CRX_Y63], for which the enrichment score was inactive: 0.719.
On to LENSTYQFIRV [CRB1_Y760_YF], for which the enrichment score is inactive: 1.05.
With LDMSQYFRLFN [CPT2_Y217], the enrichment score was inactive: 1.66.
PEEKVYLSRGD [CRACR2A_Y141_H136P]: the enrichment score was inactive: 0.625.
Still for that read-out and setting: as for LFQAKYQIRFR [CRLF1_Y272_YF], the figure is inactive: 1.23.
Take TLNHQYDFTFH [CSNK1A1_Y292_D297H_YF]: the enrichment score was inactive: 0.899.
In the case of LRTAVYHEILI [CREBBP_Y1450], the enrichment score was inactive: 2.07.
Consider TWSRSYRSDRL [CRYBB1_Y131_S129R], for which the enrichment score is inactive: 0.295.
CPASVYTKRCS [CPT2_Y508_R503C]: the enrichment score is inactive: 0.493.
Same read-out and setting: as for FQVRRYDCDCD [CRYGS_Y21_G18V], the figure is inactive: 0.712; as for EPSLVYMVTKI [CPS1_Y768_D767V], inactive: 0.952.
On the same count and under the same terms, as for DEWFLYKMRDI [CPS1_Y879_K875E], the figure is inactive: 0.956; as for LGMSQYFRLFN [CPT2_Y217_D213G], inactive: 2.39.
Consider TISPFYRQSLF [CRYAA_Y48_YF], for which the enrichment score is inactive: 0.598.
Turning to NCLRQYVAGRF [CRB1_Y711_E710Q], the enrichment score was inactive: 0.35.
As to TLNHQYDYTFD [CSNK1A1_Y292], the enrichment score was inactive: 0.647.
Consider RRERDYTNLPS [CSF1R_Y923], for which the enrichment score was inactive: 0.277.
The same measure, in the same setting: under TISPFYCQSLF [CRYAA_Y48_R49C_YF] stands inactive: 1.15.

A further assay deals with SHP2 N-SH2 domain L43F. Described as above. The conditions noted are these: peptide library: pTyr-Var.
Take FAKTQYPDVYA [CRX_Y63]: the enrichment score was inactive: 1.01.
In the case of LENSTYQFIRV [CRB1_Y760_YF], the enrichment score is inactive: 1.23.
Regarding LDMSQYFRLFN [CPT2_Y217], the enrichment score was inactive: 1.84.
Same read-out and setting: under PEEKVYLSRGD [CRACR2A_Y141_H136P] stands inactive: 0.538; under LFQAKYQIRFR [CRLF1_Y272_YF], inactive: 1.29; under TLNHQYDFTFH [CSNK1A1_Y292_D297H_YF], inactive: 0.808.
On to LRTAVYHEILI [CREBBP_Y1450], for which the enrichment score is inactive: 2.25.
Still for that read-out and setting: as for TWSRSYRSDRL [CRYBB1_Y131_S129R], the figure is inactive: 0.266; as for CPASVYTKRCS [CPT2_Y508_R503C], inactive: 0.638.
Turning to FQVRRYDCDCD [CRYGS_Y21_G18V], the enrichment score was inactive: 0.777.
Regarding EPSLVYMVTKI [CPS1_Y768_D767V], the enrichment score is inactive: 0.605.
Take DEWFLYKMRDI [CPS1_Y879_K875E]: the enrichment score is inactive: 0.811.
LGMSQYFRLFN [CPT2_Y217_D213G]: the enrichment score is inactive: 1.67.
With TISPFYRQSLF [CRYAA_Y48_YF], the enrichment score is inactive: 0.683.
Consider NCLRQYVAGRF [CRB1_Y711_E710Q], for which the enrichment score was inactive: 0.507.
For TLNHQYDYTFD [CSNK1A1_Y292], the enrichment score is inactive: 0.811.
Take RRERDYTNLPS [CSF1R_Y923]: the enrichment score was inactive: 0.376.
On to TISPFYCQSLF [CRYAA_Y48_R49C_YF], for which the enrichment score was inactive: 0.846.

Another assay concerns the target SHP2 N-SH2 domain T42A. Described as above. The following applies: peptide library: pTyr-Var.
Turning to FAKTQYPDVYA [CRX_Y63], the enrichment score was inactive: 0.785.
On to LENSTYQFIRV [CRB1_Y760_YF], for which the enrichment score was inactive: 1.07.
With LDMSQYFRLFN [CPT2_Y217], the enrichment score was inactive: 1.23.
On to PEEKVYLSRGD [CRACR2A_Y141_H136P], for which the enrichment score was inactive: 0.564.
On to LFQAKYQIRFR [CRLF1_Y272_YF], for which the enrichment score is inactive: 1.31.
As to TLNHQYDFTFH [CSNK1A1_Y292_D297H_YF], the enrichment score is inactive: 0.914.
As for LRTAVYHEILI [CREBBP_Y1450], the enrichment score is inactive: 2.87.
Consider TWSRSYRSDRL [CRYBB1_Y131_S129R], for which the enrichment score is inactive: 0.328.
For the molecule CPASVYTKRCS [CPT2_Y508_R503C], the enrichment score is inactive: 0.517.
The same measure, in the same setting: as for FQVRRYDCDCD [CRYGS_Y21_G18V], the figure is inactive: 0.644; as for EPSLVYMVTKI [CPS1_Y768_D767V], inactive: 0.536.
As for DEWFLYKMRDI [CPS1_Y879_K875E], the enrichment score is inactive: 0.721.
On to LGMSQYFRLFN [CPT2_Y217_D213G], for which the enrichment score is inactive: 1.51.
For TISPFYRQSLF [CRYAA_Y48_YF], the enrichment score is inactive: 0.62.
Still for that read-out and setting: under NCLRQYVAGRF [CRB1_Y711_E710Q] stands inactive: 0.581.
In the case of TLNHQYDYTFD [CSNK1A1_Y292], the enrichment score was inactive: 0.966.
Still for that read-out and setting: as for RRERDYTNLPS [CSF1R_Y923], the figure is inactive: 0.233; as for TISPFYCQSLF [CRYAA_Y48_R49C_YF], inactive: 0.774.

A further assay addresses SHP2 N-SH2 domain T52S. The assay is described as above. The following applies: peptide library: pTyr-Var.
Regarding FAKTQYPDVYA [CRX_Y63], the enrichment score was inactive: 0.972.
On to LENSTYQFIRV [CRB1_Y760_YF], for which the enrichment score was inactive: 1.05.
For LDMSQYFRLFN [CPT2_Y217], the enrichment score was inactive: 1.47.
Regarding PEEKVYLSRGD [CRACR2A_Y141_H136P], the enrichment score was inactive: 0.449.
As to LFQAKYQIRFR [CRLF1_Y272_YF], the enrichment score is inactive: 1.37.
TLNHQYDFTFH [CSNK1A1_Y292_D297H_YF]: the enrichment score is inactive: 0.949.
Regarding LRTAVYHEILI [CREBBP_Y1450], the enrichment score is inactive: 1.97.
Turning to TWSRSYRSDRL [CRYBB1_Y131_S129R], the enrichment score was inactive: 0.383.
Regarding CPASVYTKRCS [CPT2_Y508_R503C], the enrichment score was inactive: 0.525.
With FQVRRYDCDCD [CRYGS_Y21_G18V], the enrichment score was inactive: 0.943.
In the case of EPSLVYMVTKI [CPS1_Y768_D767V], the enrichment score was inactive: 0.827.
Take DEWFLYKMRDI [CPS1_Y879_K875E]: the enrichment score was inactive: 0.685.
With LGMSQYFRLFN [CPT2_Y217_D213G], the enrichment score was inactive: 1.24.
With TISPFYRQSLF [CRYAA_Y48_YF], the enrichment score is inactive: 0.542.
With NCLRQYVAGRF [CRB1_Y711_E710Q], the enrichment score is inactive: 0.287.
In the case of TLNHQYDYTFD [CSNK1A1_Y292], the enrichment score was inactive: 0.753.
In the case of RRERDYTNLPS [CSF1R_Y923], the enrichment score is inactive: 0.25.
Turning to TISPFYCQSLF [CRYAA_Y48_R49C_YF], the enrichment score was inactive: 0.673.

For the next assay, the target named is SHP2 N-SH2 domain wild-type. Described as above. The following applies: peptide library: pTyr-Var.
Regarding FAKTQYPDVYA [CRX_Y63], the enrichment score is inactive: 0.591.
Regarding LENSTYQFIRV [CRB1_Y760_YF], the enrichment score was inactive: 0.872.
On to LDMSQYFRLFN [CPT2_Y217], for which the enrichment score is inactive: 1.34.
For the molecule PEEKVYLSRGD [CRACR2A_Y141_H136P], the enrichment score was inactive: 0.788.
With LFQAKYQIRFR [CRLF1_Y272_YF], the enrichment score is inactive: 1.09.
Same read-out and setting: as for TLNHQYDFTFH [CSNK1A1_Y292_D297H_YF], the figure is inactive: 1.18; as for LRTAVYHEILI [CREBBP_Y1450], inactive: 1.8; as for TWSRSYRSDRL [CRYBB1_Y131_S129R], inactive: 0.374.
For CPASVYTKRCS [CPT2_Y508_R503C], the enrichment score is inactive: 0.559.
Still for that read-out and setting: as for FQVRRYDCDCD [CRYGS_Y21_G18V], the figure is inactive: 0.787; as for EPSLVYMVTKI [CPS1_Y768_D767V], inactive: 0.893; as for DEWFLYKMRDI [CPS1_Y879_K875E], inactive: 0.97.
With LGMSQYFRLFN [CPT2_Y217_D213G], the enrichment score is inactive: 1.4.
Consider TISPFYRQSLF [CRYAA_Y48_YF], for which the enrichment score was inactive: 0.932.
For the molecule NCLRQYVAGRF [CRB1_Y711_E710Q], the enrichment score was inactive: 0.467.
As for TLNHQYDYTFD [CSNK1A1_Y292], the enrichment score is inactive: 0.766.
For RRERDYTNLPS [CSF1R_Y923], the enrichment score is inactive: 0.236.
For TISPFYCQSLF [CRYAA_Y48_R49C_YF], the enrichment score is inactive: 1.18.

Source of the values: the supplement of paper PMC10369915.
